# Experimental data: article PMC4336329 (PLoS ONE, 2015)
# About 14,000 (4.5%) of roughly 310,000 compounds showed an effect of 50% or more. Effects have a minus sign here. Some of the results follow.
# Molecular target: human ether-à-go-go-related gene (hERG) potassium channel (human, UniProt Q12809)
# Experiment: primary screen, population patch clamp on CHO cells stably expressing hERG
# 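Note: peak tail current of the secondary pulse compared with the same well before compound.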
# human ether-à-go-go-related gene (hERG) potassium channel, sequence (Q12809 whole entry, looked up): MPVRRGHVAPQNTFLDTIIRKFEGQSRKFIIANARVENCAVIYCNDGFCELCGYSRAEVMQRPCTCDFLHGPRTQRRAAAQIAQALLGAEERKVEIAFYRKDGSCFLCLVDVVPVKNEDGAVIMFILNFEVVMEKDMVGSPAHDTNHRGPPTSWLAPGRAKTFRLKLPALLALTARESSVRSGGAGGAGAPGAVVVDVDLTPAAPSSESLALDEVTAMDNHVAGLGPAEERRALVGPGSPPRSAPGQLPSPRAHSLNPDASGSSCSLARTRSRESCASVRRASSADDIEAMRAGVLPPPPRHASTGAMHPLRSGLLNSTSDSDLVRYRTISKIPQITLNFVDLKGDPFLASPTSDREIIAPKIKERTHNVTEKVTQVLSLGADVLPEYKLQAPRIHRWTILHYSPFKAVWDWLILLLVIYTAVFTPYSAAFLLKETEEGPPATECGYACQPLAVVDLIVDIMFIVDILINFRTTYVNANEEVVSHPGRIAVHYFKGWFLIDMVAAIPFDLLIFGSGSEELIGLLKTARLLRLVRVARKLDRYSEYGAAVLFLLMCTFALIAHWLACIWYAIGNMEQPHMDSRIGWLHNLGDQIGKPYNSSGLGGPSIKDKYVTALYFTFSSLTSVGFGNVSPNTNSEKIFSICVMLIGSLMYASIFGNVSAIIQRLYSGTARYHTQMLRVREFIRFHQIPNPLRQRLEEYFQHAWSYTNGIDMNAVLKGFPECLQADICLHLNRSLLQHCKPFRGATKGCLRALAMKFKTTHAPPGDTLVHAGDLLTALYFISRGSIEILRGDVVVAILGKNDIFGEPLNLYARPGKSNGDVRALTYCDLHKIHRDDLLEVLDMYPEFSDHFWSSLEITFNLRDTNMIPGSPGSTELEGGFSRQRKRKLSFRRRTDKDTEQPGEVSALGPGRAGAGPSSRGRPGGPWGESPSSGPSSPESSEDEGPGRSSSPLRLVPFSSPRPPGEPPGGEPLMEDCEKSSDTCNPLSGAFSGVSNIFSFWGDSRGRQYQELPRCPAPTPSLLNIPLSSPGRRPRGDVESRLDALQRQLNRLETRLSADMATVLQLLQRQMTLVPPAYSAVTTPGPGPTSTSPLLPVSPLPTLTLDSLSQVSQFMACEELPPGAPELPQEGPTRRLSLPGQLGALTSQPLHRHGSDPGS
row,SMILES,"hERG current change (%, negative = inhibition) at 10uM [%]"
1,CN(C)CCNC(=O)C(C(=O)c1ccccc1)n1ccccc1=O.Cl (centres unmarked),24.2
2,Cl.OCCCCCNc1ncnc2ccccc12,-0.162
3,COc1ccccc1-c1nn(-c2ccccc2)cc1C(=O)N1CCN(C(=O)c2ccco2)CC1,-36
4,Cc1cccc(NC(=O)c2ccc(NC(C)c3ccccc3)c([N+](=O)[O-])c2)n1 (centres unmarked),2.29
5,NNC(=O)CN1CCN(c2ncc(C(F)(F)F)cc2Cl)CC1,-3.54
6,CCCC(=O)NC(Nc1ccc(S(=O)(=O)Nc2cc(C)on2)cc1)(C(F)(F)F)C(F)(F)F,17.2
7,CCn1nnnc1SCCSc1nnnn1CC,-5.72
8,CSc1cccc(NC(=S)NN(C)C)c1,15.5
9,COc1ccc(Br)cc1S(=O)(=O)n1ccnc1C,-1.19
10,NC(=O)Cc1ccc(C(=O)c2ccccc2)s1,7.3
11,COc1ccc(-c2nn(-c3ccccc3)cc2C(=O)NCC(c2cccs2)N2CCOCC2)cc1 (centres unmarked),-30.2
12,COc1cc(/C=C/C(=O)OCC(=O)N2CCN(C(=O)c3ccco3)CC2)ccc1O,2.55
13,CC(=O)Oc1ccc2c(=O)oc(-c3ccc([N+](=O)[O-])cc3)nc2c1,1.56
14,CC(C)(C)c1nnc(SCC(=O)c2ccccc2)n(N)c1=O,-3.91
15,CNc1cncc(C(=O)O)c1,7.43
16,CCOC(=O)c1c(N)sc(C(=O)N2CCOCC2)c1C,1.47
17,CC1=NOC(=O)/C1=C\c1ccc(-c2cc(Cl)ccc2Cl)o1,19.1
18,CN(C)Cc1ccc(-c2nc3cccc4c3n2CCNC4=O)cc1,-12.9
19,CC(=O)Nc1ccc(S(=O)(=O)N2CCC(C(=O)NCCC(=O)NCc3ccccc3)CC2)cc1,10.1
20,C#CCNC(=O)C1=C[C@H](c2ccc(C#C)cc2)C[C@H](OCc2ccc(CO)cc2)O1,-24.2
21,CN(C)c1ccc(/C=N/Nc2cc(N3CCOCC3)nc(N3CCOCC3)n2)cc1,-4.78
22,CCc1ccc(CC2(O)CC(C)N(C)CC2C)cc1 (centres unmarked),-29.7

row,SMILES,"hERG current change (%, negative = inhibition) at 10uM [%]"
1,COC(=O)c1scc(C)c1S(=O)(=O)Nc1ccc(C)cc1,15.3
2,Cc1cc(C(=S)N2CCOCC2)c(C)n1-c1ccc(F)cc1,-12.6
3,COc1cccc(N2CCN(CC(=O)NCc3cccs3)CC2)c1,-3.18
4,COc1cc(CC(=O)OCC(=O)Nc2cc([N+](=O)[O-])ccc2Cl)cc(OC)c1OC,-50
5,Cc1cccc(-c2nnc(SCC(=O)Nc3cc(C)on3)n2C)c1,1.68
6,Cc1cccc(S(=O)(=O)c2c(C)cc(C)nc2Cl)c1,-4.43
7,Cn1nnc2cc(NC(=O)Nc3cccc(Cl)c3)ccc21,7.8
8,O=C1CC(c2cccc(F)c2)c2c(c3ccccc3[nH]c2=O)O1 (centres unmarked),16
9,COc1cc(NC(=O)c2ccc(NC3=NC4CS(=O)(=O)CC4S3)cc2)cc(OC)c1 (centres unmarked),-3.08
10,Cc1ccc(S(=O)(=O)CC(=O)c2cc(C)c(OC(=O)N(C)C)c(C)c2)cc1,27.7
11,O=C(N/N=C/c1ccc(OCc2ccccc2)cc1)c1ccco1,13.3
12,COC(=O)CS(=O)(=O)c1ccc2c(c1)CC(=O)N2,-10.5
13,CCC(C(=O)Nc1cc(OC)c(NC(=O)c2ccccc2)cc1OC)c1ccccc1 (centres unmarked),14.1
14,CC1(C)CC(=O)C2=C(C1)NC(=O)CC2c1ccc(N(CCC#N)CCC#N)cc1 (centres unmarked),17.3
15,CCSc1ccccc1C(=O)NCCc1ccccc1,40
16,C/C=C(/C)C(=O)OC1c2c(ccc3ccc(=O)oc23)OC(C)(C)C1OC(C)=O (centres unmarked),-71.8
17,COC(=O)CCC(=O)c1oc2ccc(OC)cc2c1N,4.41
18,Cc1ccc(N(NC(=O)C(O)(c2ccccc2)c2ccccc2)C(=O)CCl)cc1,8.33
19,CN(C)c1cccc(C(=O)NCc2ccccc2)c1,-0.98
20,Cc1c(C(=O)Nc2ccccc2)c2ccc(C(F)(F)F)cc2n1O,4.91
21,COCC(C)NS(=O)(=O)c1ccc(NC(=O)c2ccccn2)cc1 (centres unmarked),4.06
22,Cc1ccc(NC(=O)Nc2cc(C)on2)cc1,12.8
